Laboratory results taken from PubChem BioAssay AID743279 (National Center for Advancing Translational Sciences (NCATS), 2014).
Among all 360,000 compounds or so, about 17,000 (4.7%) were called active. Inconclusive means that the source gave no clear call. Such entries were picked first, then a sample of the others. No stated cut-off is given here; in the data, active means activity change below about -50%; inconclusive means mostly about -30% to -49%; inactive means weaker than that.

test: qHTS for Inhibitors of Inflammasome Signaling: IL-1-beta AlphaLISA Primary Screen; details: THP-1 LPS/ATP IL-1B secretion, 16 h; at 57.5 µM, hits give low values
In short: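 THP-1 cells pretreated 1 hr with compounds (up to 57.5 uM final), then stimulated with LPS (250 ng/mL final) plus ATP (1.25 mM final); secreted IL-1B measured by AlphaLISA after 16 hr, decreased signal indicating inhibition.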
On the % scale 0 is the no-effect control and ±100 the full control effect.

Activity change, active:
CN(C)CCN1C(=O)C2C(C(=O)Nc3cc(Cl)cc(Cl)c3)C3C=CC2(O3)C1C(=O)NC1CCCCC1 (stereo unspecified) -67.6%
COc1ccc(N2C(=O)C(Cl)=C(Oc3cccc(OC)c3)C2=O)cc1 -102%
Fc1ccccc1CNc1nc(NCC2CC2)nc2ccsc12 -76%
CCn1cc(C(=O)NCc2ccc3c(c2)OCO3)c(=O)c2cc(F)c(N3CCN(C(=O)c4ccco4)CC3)cc21 -59.3%
CC(C)N(CCNC(=O)COc1ccc2oc3c(c2c1)CCCC3)C(C)C -77.3%
COc1cccc(CN2CCN(c3ccc(F)cc3)C2=O)c1 -51.4%
O=C(NCc1ccccc1)c1nc(S(=O)(=O)Cc2ccccc2)ncc1Cl -97.6%
COc1cccc(CC(=O)Nc2nc(-c3ccc(OC)c(OC)c3)cs2)c1 -50.3%
Cc1cc2c(cc1C)N(C(=O)CCl)CCN2C(=O)CCl -99.6%
COc1ccc(-n2c(SCc3ccc([N+](=O)[O-])cc3)nnc2-c2ccc(C)cc2)cc1 -50%

Activity change, inactive:
O=C(NCC(c1cccnc1)N1CCN(c2ccccc2)CC1)c1ccco1 (stereo unspecified) 19.2%
COc1ccccc1OCc1nnc(SCC(=O)N2CCCCC2)o1 13.2%
CC1(c2nnnn2-c2ccc3c(c2)OCCO3)CCC(=O)N1Cc1cccc(C(F)(F)F)c1 (stereo unspecified) 62.8%
CCN(CC)CCN1C(=O)c2ccccc2NC1c1cc(OC)c(OC)c(OC)c1 (stereo unspecified) 21.6%
COc1ccc(Cl)cc1S(=O)(=O)n1nnc2ccccc21 -7.32%
CC(C)(C)NC(=O)C(c1ccc(C(F)(F)F)cc1)n1c(=O)c(-c2cc3ccccc3[nH]2)nc2ccccc21 (stereo unspecified) 150%
COC(=O)c1ccc(NC(=O)CCC(=O)c2ccc(F)cc2)cc1 -13.7%
CCN(CC(=O)Nc1cc(Cl)ccc1C)C(=O)C1CC(=O)N(Cc2ccccc2)C1 (stereo unspecified) -17.2%
COc1ccccc1C(=O)NC(=O)CSc1nnc(SC)s1 13.3%
Cc1cc(C(=O)CSc2nc3ccccc3n2C)c(C)n1C -28.3%
N#Cc1ccc(OCc2nnc(SCC(=O)c3ccccc3)n2-c2ccccc2)cc1 -18.7%
CC(=O)Oc1cccc2c1C(=O)C1CC=CC(OC(C)=O)C1C2=O (stereo unspecified) -22.9%
Cc1ccnc(NC(=O)c2cc([N+](=O)[O-])cc([N+](=O)[O-])c2)c1 9.28%
CCOC(=O)/C(Sc1nc(-c2ccccc2)cc(-c2ccccc2)c1C#N)=C(\C)O -19.3%
Nc1nnnn1/N=C/c1ccc(F)cc1 13.5%
O=C(NCCc1nccs1)C1CCC(=O)N(CCc2ccc(Cl)cc2)C1 (stereo unspecified) 0.623%

Activity change, inconclusive:
COc1ccc(CCNC(=O)C23CN(Cc4ccccc4)CC2C(c2ccc([N+](=O)[O-])cc2)=NO3)cc1 (stereo unspecified) -31.9%
COc1ccc(OC)c(CCNC(=O)CN2C(=O)COc3ccc(S(=O)(=O)N4CCOCC4)cc32)c1 -41.4%
Cc1cc(C)nc(NC(=O)/C=C/c2ccccc2Cl)c1 -38.4%
Cc1nc2c(-c3ccc(Cl)cc3)cnn2c(N)c1-c1ccc(F)cc1 -39.5%
COc1ccccc1NS(=O)(=O)c1cc(NC(=O)c2cccnc2)ccc1N1CCCCC1 -34%
CCn1cc(C(=O)N(C)c2ccccc2F)c2cc(OC)c(OC)cc2c1=O -37.7%
CC[C@]12c3[nH]c4cc(CCC(=O)N(C)C)ccc4c3CCN1C(=O)[C@@H](CC(=O)NCCC1=CCCCC1)C[C@@H]2C(=O)N1CCN(C(=O)C2CC2)CC1 -35.9%
CC1=C(C(N)=O)C(c2ccc(C)o2)C(C(N)=O)=C(C)N1 -31.6%
CN(CC(=O)Nc1ccc(Cl)c(C(F)(F)F)c1)C(=O)c1cc(=O)[nH]c2ccccc12 -31.3%
CCCCCCCCCC(=O)N1c2ccccc2NC(=O)C1CC(=O)Nc1ccc(C(=O)O)cc1 (stereo unspecified) -30.3%
CCCNC(=O)c1ccc2c(c1)ncn2-c1cc(C)cc(C)c1 -49.2%
O=C1c2cc(Cl)ccc2OC2(CCNCC2)C12CC(c1ccccc1)=NO2 (stereo unspecified) -48.9%
Cc1nc2ccccc2n1CC(O)COCC1CC=CCC1 (stereo unspecified) -34%
CCc1nc2ccc(C(=O)Nc3cc(-c4ccccc4)ccc3OC)cn2c1N(C)Cc1ccc(Cl)cc1 -31.5%
COc1ccc(COC(=O)C2=C(C)NC(=O)NC2c2ccc(O)cc2)cc1 (stereo unspecified) -40.2%
Cc1ccc(Oc2ccc(N)cc2)cc1 -41.3%
Cc1csc(=N)n1-c1ccc(Cl)cc1 -35%
CCNC(=S)N/N=C/c1cccs1 -41.2%
CCOC(=O)c1oc2ccccc2c1CN1CCN(C(=O)c2ccccc2)CC1 -38.6%
CCOc1cc(CNc2ccc(N3CCOCC3)cc2)cc(Br)c1OCC -41%
Clc1nc(NCCc2ccccc2)c2cn[nH]c2n1 -32.5%
COc1ccc([C@H]2CC(=O)C=C(c3ccccc3)C2)cc1OC -33.7%
Cc1cccc(NCc2ccccc2O)n1 -30.4%
CCOC(=O)C1=C(C)NC(=O)NC1c1ccc(-c2ccc(Cl)cc2)o1 (stereo unspecified) -39.7%
Fc1cccc(CN2CCN3CCCC3C2C2CCCCC2)c1 (stereo unspecified) -30.2%
O=C(c1cccc(Cl)c1)N1CCCC(c2ccc(Cl)cc2)=N1 -48.9%
Cc1ncc(CSc2ccc(Cl)cc2)c(CO)c1O -48.7%
Cc1cc(C)c(NC(=O)CSc2nc3ncc(Br)cc3[nH]2)c(C)c1 -48.6%
Cc1cc(C(=O)CSc2nnc(Nc3ccccc3)s2)c(C)n1CC1CCCO1 (stereo unspecified) -35.6%
O=C1C=CC(n2cc(F)c(=O)[nH]c2=O)O1 (stereo unspecified) -33.7%
